From the supplement of paper PMC6531468
The other results are listed elsewhere or left out. Read counts after selection give these values, which scatter widely. Scores sum up all selected molecules that hold the word; the word was not tested alone.

Experiments:
Experiment in all cases: 6-mer SELEX enrichment z-score vs GST control; IMP3 is the RNA-binding protein IGF2BP3; higher = more enriched by binding
IMP3 KH1-4 = details: construct: KH1-4 (164-579); SELEX round: R4
Protocol: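 SELEX-seq with GST-tagged IMP3 KH1-4 (Pro164-Lys579) and an N40 RNA pool, round 4. 6-mer z-score of sequence-tag enrichment normalised to the corresponding GST SELEX round; RNA k-mers written as DNA (T for U).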

IMP3 RRM1-2 = details: construct: RRM1-2 (1-163); SELEX round: R2
Chain of IMP3 RRM1-2 (chain, as listed by the source): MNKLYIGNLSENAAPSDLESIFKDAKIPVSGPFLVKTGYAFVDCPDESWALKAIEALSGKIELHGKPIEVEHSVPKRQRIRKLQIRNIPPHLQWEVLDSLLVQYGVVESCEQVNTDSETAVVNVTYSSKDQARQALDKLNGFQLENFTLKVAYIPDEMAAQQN
Protocol: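 SELEX-seq with GST-tagged IMP3 RRM1-2 (Met1-Asn163) and an N40 RNA pool, round 2. 6-mer enrichment z-score normalised to GST SELEX. RNA written as DNA (T = U).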

IMP3 full-length = IMP3 full-length (UniProt O00425); details: construct: FL IMP3 (1-579); SELEX round: R4
Chain of UniProt O00425 (O00425 whole entry): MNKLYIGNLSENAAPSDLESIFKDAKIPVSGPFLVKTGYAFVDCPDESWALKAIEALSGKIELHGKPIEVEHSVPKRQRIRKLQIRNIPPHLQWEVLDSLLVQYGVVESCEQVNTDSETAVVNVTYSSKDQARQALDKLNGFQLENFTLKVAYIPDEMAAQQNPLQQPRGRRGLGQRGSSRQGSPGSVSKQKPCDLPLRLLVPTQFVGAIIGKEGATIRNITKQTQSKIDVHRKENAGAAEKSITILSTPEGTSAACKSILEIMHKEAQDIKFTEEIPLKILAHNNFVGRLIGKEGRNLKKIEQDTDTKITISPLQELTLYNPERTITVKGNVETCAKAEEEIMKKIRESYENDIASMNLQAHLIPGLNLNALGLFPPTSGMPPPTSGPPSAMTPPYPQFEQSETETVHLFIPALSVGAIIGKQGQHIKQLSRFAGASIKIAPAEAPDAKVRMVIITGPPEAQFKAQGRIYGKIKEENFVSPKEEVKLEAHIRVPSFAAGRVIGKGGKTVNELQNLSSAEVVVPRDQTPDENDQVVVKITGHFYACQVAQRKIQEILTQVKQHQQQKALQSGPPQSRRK
Protocol: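 SELEX-seq with GST-tagged full-length IMP3 and an N40 RNA pool, round 4. Each 6-mer is scored as an enrichment z-score of sequence tags containing it, normalised to the matching GST SELEX round. RNA written as DNA (T = U).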

IMP3 KH1-2 = details: construct: KH1-2 (164-376); SELEX round: R4
Chain of IMP3 KH1-2 (chain, as listed by the source): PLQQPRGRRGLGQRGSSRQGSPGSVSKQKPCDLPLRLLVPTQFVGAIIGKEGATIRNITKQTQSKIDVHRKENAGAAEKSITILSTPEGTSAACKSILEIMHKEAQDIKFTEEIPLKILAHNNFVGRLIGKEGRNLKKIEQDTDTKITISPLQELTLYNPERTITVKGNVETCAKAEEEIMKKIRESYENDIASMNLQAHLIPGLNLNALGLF
Protocol: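 SELEX-seq with GST-tagged IMP3 KH1-2 (Pro164-Phe376) and an N40 RNA pool, round 4 (stringent 300/600 mM KCl washes). 6-mer z-score of sequence-tag enrichment normalised to the corresponding GST SELEX round; RNA k-mers written as DNA (T for U).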

IMP3 KH3-4 = details: construct: KH3-4 (377-579); SELEX round: R4
Chain of IMP3 KH3-4 (chain, as listed by the source): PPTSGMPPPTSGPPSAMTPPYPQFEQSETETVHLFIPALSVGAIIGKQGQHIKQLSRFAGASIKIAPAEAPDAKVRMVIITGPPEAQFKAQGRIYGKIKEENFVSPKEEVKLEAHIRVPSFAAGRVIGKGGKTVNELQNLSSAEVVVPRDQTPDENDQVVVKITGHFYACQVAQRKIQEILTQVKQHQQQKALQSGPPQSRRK
Protocol: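 SELEX-seq with GST-tagged IMP3 KH3-4 (Pro377-Lys579) and an N40 RNA pool, round 4. 6-mer z-score of sequence-tag enrichment normalised to the corresponding GST SELEX round; RNA k-mers written as DNA (T for U).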

Chain of IMP3 KH1-4 (chain, as listed by the source): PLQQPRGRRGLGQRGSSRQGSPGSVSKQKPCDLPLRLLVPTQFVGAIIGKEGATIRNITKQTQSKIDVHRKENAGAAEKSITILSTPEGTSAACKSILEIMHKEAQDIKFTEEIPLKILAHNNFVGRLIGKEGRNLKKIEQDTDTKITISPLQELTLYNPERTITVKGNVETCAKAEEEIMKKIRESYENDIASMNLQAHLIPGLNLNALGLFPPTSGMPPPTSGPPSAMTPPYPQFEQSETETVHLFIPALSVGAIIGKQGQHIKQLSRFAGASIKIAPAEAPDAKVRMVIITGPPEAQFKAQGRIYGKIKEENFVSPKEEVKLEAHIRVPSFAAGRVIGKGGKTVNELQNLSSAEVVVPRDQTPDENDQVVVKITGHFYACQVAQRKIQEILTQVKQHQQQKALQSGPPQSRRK

Row | Sequence | 6-mer SELEX enrichment z-score (IMP3 KH1-4) | 6-mer SELEX enrichment z-score (IMP3 RRM1-2) | 6-mer SELEX enrichment z-score (IMP3 full-length) | 6-mer SELEX enrichment z-score (IMP3 KH1-2) | 6-mer SELEX enrichment z-score (IMP3 KH3-4)
1 | TCGATA | -0.187 | -0.173 | -0.143 | -0.268 | -0.032
2 | TATAAC | 1.53 | -0.307 | -0.079 | 1.48 | 2.09
3 | CTTGAT | -0.228 | 0.037 | -0.305 | -0.264 | -0.1
4 | AGGTGA | 0.298 | -0.3 | 0.132 | 0.287 | 0.513
5 | CGCATG | 0.308 | 1.1 | 0.904 | 0.232 | 0.11
6 | GCTTGT | -0.048 | 0.337 | 0.01 | -0.016 | 0.114
7 | GTGATG | 0.662 | -0.258 | -0.094 | 0.373 | 0.607
8 | TTTGAA | 0.542 | -0.547 | -0.413 | 0.312 | 1
9 | GGATTT | 0.611 | 0.1 | 0.159 | 0.557 | 0.884
10 | CAGGGT | 0.151 | 0.325 | 0.565 | 0.199 | 0.257
11 | CTAGGA | -0.163 | -0.135 | -0.303 | -0.228 | -0.136
12 | TATCCG | -0.421 | -0.259 | -0.343 | -0.302 | -0.499
13 | GCTGTA | -0.056 | -0.004 | -0.046 | -0.032 | 0.093
14 | TAAATT | 1.12 | -0.393 | -0.229 | 1.04 | 1.94
15 | GTCCGT | -0.165 | 0.187 | 0.202 | -0.155 | -0.288
16 | CGCGGT | -0.287 | 0.193 | 0.065 | -0.258 | -0.175
17 | CAGTTT | 0.135 | 0.405 | 0.298 | 0.183 | 0.219
18 | ACGTGC | -0.61 | -0.19 | -0.181 | -0.619 | -0.729
19 | CGCTGA | -0.553 | -0.454 | -0.404 | -0.403 | -0.54
20 | TACAGG | 1.06 | 0.446 | 0.854 | 0.846 | 0.998

Row | Sequence | 6-mer SELEX enrichment z-score (IMP3 KH1-4) | 6-mer SELEX enrichment z-score (IMP3 RRM1-2) | 6-mer SELEX enrichment z-score (IMP3 full-length) | 6-mer SELEX enrichment z-score (IMP3 KH1-2) | 6-mer SELEX enrichment z-score (IMP3 KH3-4)
21 | TTTGAT | 0.708 | 0.109 | 0.039 | 0.496 | 1.03
22 | TTTTTC | 1.02 | 0.449 | 0.458 | 1.21 | 1.25
23 | CGAGTG | -2.46 | -0.145 | -1.32 | -2.24 | -2.09
24 | TAGGTC | 0.154 | 0.341 | 0.354 | 0.2 | 0.337
25 | AGTGTA | -2 | -0.275 | -1.64 | -1.93 | -1.75
26 | CGTAAT | -0.527 | -0.43 | -0.507 | -0.517 | -0.358
27 | CTCTAA | -0.143 | -0.189 | -0.557 | -0.136 | -0.195
28 | TTATGT | 0.809 | 0.305 | 0.163 | 0.54 | 0.922
29 | CCCAGA | -1.81 | -1.37 | -1.57 | -1.75 | -2.15
30 | AGCATT | 0.003 | 0.886 | 0.555 | -0.012 | 0.041
31 | AGAGCG | -4.7 | -0.59 | -2.33 | -4.35 | -4.19
32 | GTAGCA | -0.274 | 0.161 | 0.159 | -0.369 | -0.317
33 | AGTACT | -0.585 | -0.021 | -0.36 | -0.554 | -0.527
34 | TAGCGA | -1.02 | -0.306 | -0.673 | -0.937 | -0.774
35 | AAACGT | -1.69 | -1.34 | -1.64 | -1.78 | -1.53
36 | CGAACT | -1.1 | -0.851 | -1.02 | -0.961 | -1.07
37 | AAGTAC | -0.693 | -0.45 | -0.558 | -0.809 | -0.669
38 | TTACGT | 0.157 | 0.067 | -0.176 | 0.035 | 0.199
39 | TGATTA | 1.08 | -0.231 | -0.139 | 0.801 | 1.56
40 | AGTGTG | -0.31 | -0.055 | -0.604 | -0.464 | -0.285

Row | Sequence | 6-mer SELEX enrichment z-score (IMP3 KH1-4) | 6-mer SELEX enrichment z-score (IMP3 RRM1-2) | 6-mer SELEX enrichment z-score (IMP3 full-length) | 6-mer SELEX enrichment z-score (IMP3 KH1-2) | 6-mer SELEX enrichment z-score (IMP3 KH3-4)
41 | TGTTTC | -0.001 | 0.351 | 0.054 | 0.057 | 0.051
42 | CTTGCG | -1.12 | 0.173 | -0.617 | -0.964 | -0.864
43 | TTCTAG | 0.22 | 0.299 | 0.02 | 0.165 | 0.302
44 | GAGCTT | -0.763 | 0.181 | -0.254 | -0.577 | -0.457
45 | TCGTCA | -0.101 | 0.451 | 0.374 | -0.179 | -0.114
46 | GTTTCC | -0.424 | 0.164 | -0.303 | -0.358 | -0.421
47 | AAATTC | 0.53 | -0.31 | -0.129 | 0.83 | 0.81
48 | CCCCAA | -1.55 | -1.37 | -1.76 | -1.27 | -2.39
49 | ATGCTC | -0.105 | 0.089 | 0.034 | -0.029 | -0.161
50 | ACGCAC | 0.794 | 0.83 | 0.871 | 0.776 | -0.026
51 | GCTCCG | -0.227 | -0.083 | 0.384 | -0.013 | -0.3
52 | CCAAGC | -1.72 | -0.235 | -1 | -1.69 | -1.85
53 | AATCTA | 0.337 | -0.232 | -0.365 | 0.166 | 0.389
54 | ATCTGC | 0.166 | 0.085 | 0.208 | 0.145 | -0.154
55 | TTGCTG | 0.363 | 0.226 | 0.003 | 0.318 | 0.27
56 | GGGGTA | 0.055 | 0.193 | 0.218 | 0.322 | 0.384
57 | GTGTCC | -0.635 | 0.003 | -0.17 | -0.565 | -0.663
58 | TGTCAT | 0.368 | 0.533 | 0.443 | 0.188 | 0.328
59 | AAAATC | -0.553 | -0.801 | -1.09 | -0.425 | -0.286
60 | TCAAGA | -0.65 | 0.148 | -0.176 | -0.632 | -0.467
